# Where “and” joins values, the source holds several entries; their conditions need not be identical. Equal entries are not always repeated. Inconclusive means that the source gave no clear call. Such entries were picked first, then a sample of the others. For some assays here: Potencies of inconclusive entries are doubtful fits and often do not repeat. More than one record can exist for a structure, and the calls need not agree. Calls of active or inactive are those of the source. Unless noted, calls come from the whole dose curve; as a rule, active = well fitted curve in the direction sought with a large enough effect in the repeat runs; inconclusive = weak or mixed curves; inactive = no such curve, though single readings can be large; an effect the other way counts as inactive or inconclusive.
# Columns and labels:
# [1] = A CellTox Green Cytotoxicity Assay to monitor cytotoxicity in HepG2 cells - 32 hour (AID 1224883); details: CellTox Green fluorescence; series mostly up to 76.8 µM; note: nearly all actives have a fitted effect of over 50% in size; note: potency is the fitted concentration of half-maximal effect
# Procedure, shortened: (§1)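 HepG2 cells were seeded together with the CellTox Green dye at 600 cells/well, left 5 h at 37 C/5% CO2, then given compounds in DMSO. Fluorescence from dye bound to dead-cell DNA was read repeatedly over 40 h of treatment at 37 C.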
# [2] = A CellTox Green Cytotoxicity Assay to monitor cytotoxicity in HEK293 cells - 8 hour (AID 1224884); details: CellTox Green fluorescence; series mostly up to 76.8 µM; note: nearly all actives have a fitted effect of over 35% in size; note: potency is the fitted concentration of half-maximal effect
# Procedure, shortened: (§2)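 HEK293 cells premixed with CellTox Green dye were seeded at 600 cells/well and left 5 h at 37 C/5% CO2 before pin transfer of 23 nL compound in DMSO. Fluorescence from dye bound to dead-cell DNA was read during 40 h treatment.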
# [3] = qHTS RealTime-Glo MT Cell Viability Assay in HEK293 cells - 24 hour (AID 1224886); details: RealTime-Glo luminescence; series mostly up to 76.8 µM; note: nearly all actives have a fitted effect of over 50% in size; note: potency is the fitted concentration of half-maximal effect
# Procedure, shortened: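 HEK293 cells seeded with NanoLuc/prosubstrate reagent, rested 5 h at 37 C, then dosed and kept at 37 C up to 40 h. Nonlytic real-time luminescence from viable cells read at 0, 8, 16, 24, 32 and 40 h.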
# [4] = A CellTox Green Cytotoxicity Assay to monitor cytotoxicity in HEK293 cells - 32 hour (AID 1224881); details: CellTox Green fluorescence; series mostly up to 76.8 µM; note: nearly all actives have a fitted effect of over 40% in size; note: potency is the fitted concentration of half-maximal effect
# Procedure, shortened: as §2
# [5] = qHTS assay to identify small molecule antagonists of the androgen receptor (AR) signaling pathway using the MDA cell line in the presence of 0.5 nM R1881 - cell viability counter screen (AID 1259242); details: MDA-kb2 viability, CellTiter-Fluor protease fluorescence, 16 h; series mostly up to 92.4 µM; note: nearly all actives have a fitted effect of over 45% in size; note: potency is the fitted concentration of half-maximal effect
# Procedure, shortened: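 MDA-kb2 cells (human breast carcinoma, stably carrying MMTV-luciferase reporter) were exposed to compounds with 0.5 nM R1881 (final) for 16 hr at 37C, 0% CO2; viability then read as live-cell protease fluorescence (CellTiter-Fluor, 30 min) in the same wells.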
# [6] = A CellTox Green Cytotoxicity Assay to monitor cytotoxicity in HepG2 cells - 0 hour (AID 1224882); details: CellTox Green fluorescence; series mostly up to 76.8 µM; note: nearly all actives have a fitted effect of over 35% in size; note: potency is the fitted concentration of half-maximal effect
# Procedure, shortened: as §1
# [7] = qHTS RealTime-Glo MT Cell Viability Assay in HEK293 cells - 8 hour (AID 1224887); details: RealTime-Glo luminescence; series mostly up to 76.8 µM; note: nearly all actives have a fitted effect of over 50% in size; note: potency is the fitted concentration of half-maximal effect
# Procedure, shortened: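 HEK293 cells mixed with RealTime-Glo reagents (NanoLuc plus cell-permeant prosubstrate) at 600 cells/well, preincubated 5 h at 37 C/5% CO2, then given 23 nL compound in DMSO. Nonlytic luminescence from viable cells was read at 0, 8, 16, 24, 32 and 40 h.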
# [8] = A CellTox Green Cytotoxicity Assay to monitor cytotoxicity in HEK293 cells - 16 hour (AID 1224888); details: CellTox Green fluorescence; series mostly up to 76.8 µM; note: nearly all actives have a fitted effect of over 35% in size; note: potency is the fitted concentration of half-maximal effect
# Procedure, shortened: as §2
# [9] = qHTS assay to identify small molecule phospholipidosis (PLD) inducers (AID 1259344; active = well fitted curve in the direction sought with a large enough effect; inconclusive = small, poorly fitted or top-dose-only effect, or another doubt; inactive = no such curve, though single readings can be large; an effect the other way counts as inactive or inconclusive); details: HepG2 phospholipidosis, LipidTOX Red imaging, 24 h; series mostly up to 38.3 µM
# Procedure, shortened: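 HepG2 cells grown on collagen I take up LipidTOX Red while exposed to compound for 24 h; after fixation they are imaged at 20x and pit metrics are extracted.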
# [10] = qHTS assay to identify small molecule antagonists of the estrogen receptor alpha (ER-alpha) signaling pathway using the BG1 cell line in the presence of 0.1 nM 17-beta-estradiol - cell viability counter screen (AID 1259241); details: VM7Luc4E2 (BG1) viability, CellTiter-Fluor protease, 22 h, 0.1 nM estradiol agonist added; series mostly up to 92.4 µM; note: nearly all actives have a fitted effect of over 40% in size; note: potency is the fitted concentration of half-maximal effect
# Procedure, shortened: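 Estradiol-stimulated (0.1 nM) VM7Luc4E2 cells exposed to compounds 22 hr; viability measured by fluorescence of cleaved CellTiter-Fluor substrate after 30 min.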
# [11] = qHTS RealTime-Glo MT Cell Viability Assay in HepG2 cells - 16 hour (AID 1224885); details: RealTime-Glo luminescence; series mostly up to 76.8 µM; note: potency is the fitted concentration of half-maximal effect; nearly all actives have a fitted effect of over 50% in size
# Procedure, shortened: (§3)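 HepG2 cells (600/well) were dispensed with RealTime-Glo reagents, incubated 5 h at 37 °C, then treated with compounds in DMSO for up to 40 h. Nonlytic NanoLuc luminescence reflecting viable cells was read at each stated time point.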
# [12] = target: Estrogen receptor (Homo sapiens) (UniProt P03372); assay: qHTS assay to identify small molecule antagonists of the estrogen receptor alpha (ER-alpha) signaling pathway using the BG1 cell line in the presence of 0.1 nM 17-beta-estradiol (AID 1259244); details: VM7Luc4E2 (BG1) ERE-luciferase, antagonist mode, 0.1 nM E2, 22 h; series mostly up to 92.4 µM
# Chain of UniProt P03372 (P03372 whole entry, looked up): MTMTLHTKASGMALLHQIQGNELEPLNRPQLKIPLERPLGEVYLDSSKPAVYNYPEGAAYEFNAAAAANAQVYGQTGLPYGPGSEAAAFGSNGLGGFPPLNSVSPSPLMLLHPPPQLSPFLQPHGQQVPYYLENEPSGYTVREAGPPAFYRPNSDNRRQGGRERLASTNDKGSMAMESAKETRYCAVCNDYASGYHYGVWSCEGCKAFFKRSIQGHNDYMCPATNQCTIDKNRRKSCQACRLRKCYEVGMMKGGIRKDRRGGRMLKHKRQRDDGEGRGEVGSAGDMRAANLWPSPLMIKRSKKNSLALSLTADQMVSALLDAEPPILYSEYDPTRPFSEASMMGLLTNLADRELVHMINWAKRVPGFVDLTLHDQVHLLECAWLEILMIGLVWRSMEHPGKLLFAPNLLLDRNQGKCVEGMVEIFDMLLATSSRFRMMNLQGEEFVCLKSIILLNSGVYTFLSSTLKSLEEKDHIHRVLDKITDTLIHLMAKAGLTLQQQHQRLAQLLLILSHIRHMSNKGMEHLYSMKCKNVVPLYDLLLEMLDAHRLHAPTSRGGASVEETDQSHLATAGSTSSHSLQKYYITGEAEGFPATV
# Procedure, shortened: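 VM7Luc4E2 cells (endogenous full-length ER-alpha, stable 4xERE-luciferase) were grown 5 days in phenol red-free medium with charcoal-stripped FBS, then exposed 22 h at 37C to compounds plus 0.1 nM (final) 17beta-estradiol; ONE-Glo luminescence read-out.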
# [13] = A CellTox Green Cytotoxicity Assay to monitor cytotoxicity in HepG2 cells - 8 hour (AID 1224890); details: CellTox Green fluorescence; series mostly up to 76.8 µM; note: nearly all actives have a fitted effect of over 45% in size
# Procedure, shortened: as §1
# [14] = target: Androgen receptor (Homo sapiens) (UniProt P10275); assay: qHTS assay to identify small molecule antagonists of the androgen receptor (AR) signaling pathway using the MDA cell line in the presence of 0.5 nM R1881 (AID 1259243); details: MDA-kb2 MMTV-luciferase, R1881 0.5 nM, 16 h; series mostly up to 92.4 µM
# Chain of UniProt P10275 (P10275 whole entry, looked up): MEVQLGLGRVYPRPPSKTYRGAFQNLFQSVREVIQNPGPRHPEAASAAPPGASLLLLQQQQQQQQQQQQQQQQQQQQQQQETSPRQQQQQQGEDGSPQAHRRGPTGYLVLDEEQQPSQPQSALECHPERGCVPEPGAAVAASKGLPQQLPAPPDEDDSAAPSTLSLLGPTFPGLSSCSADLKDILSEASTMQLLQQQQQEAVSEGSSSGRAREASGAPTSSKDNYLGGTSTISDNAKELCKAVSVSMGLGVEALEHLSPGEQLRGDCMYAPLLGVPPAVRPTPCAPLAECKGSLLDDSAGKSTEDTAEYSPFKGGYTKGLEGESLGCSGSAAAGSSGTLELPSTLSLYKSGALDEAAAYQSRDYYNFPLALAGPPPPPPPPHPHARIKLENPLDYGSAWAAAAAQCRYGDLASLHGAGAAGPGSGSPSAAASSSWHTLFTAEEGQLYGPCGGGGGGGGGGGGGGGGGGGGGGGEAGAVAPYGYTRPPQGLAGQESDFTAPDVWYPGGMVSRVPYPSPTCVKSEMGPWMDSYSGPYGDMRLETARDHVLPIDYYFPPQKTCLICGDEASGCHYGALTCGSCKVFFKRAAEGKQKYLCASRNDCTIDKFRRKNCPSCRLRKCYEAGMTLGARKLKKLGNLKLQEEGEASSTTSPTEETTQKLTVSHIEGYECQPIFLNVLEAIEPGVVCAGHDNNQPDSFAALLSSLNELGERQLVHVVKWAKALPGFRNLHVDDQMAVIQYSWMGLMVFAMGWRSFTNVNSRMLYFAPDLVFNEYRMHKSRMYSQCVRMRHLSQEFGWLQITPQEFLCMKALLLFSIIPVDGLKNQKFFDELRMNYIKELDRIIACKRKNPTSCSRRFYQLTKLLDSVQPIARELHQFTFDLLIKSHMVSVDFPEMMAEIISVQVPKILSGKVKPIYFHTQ
# Procedure, shortened: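 MDA-kb2 human breast carcinoma cells carrying an MMTV-luciferase reporter (AR- and GR-responsive) were plated, rested 5 hr at 37C, dosed with compounds, then stimulated with 0.5 nM R1881 (final) for 16 hr; luminescence was read after ONE-Glo.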
# [15] = qHTS RealTime-Glo MT Cell Viability Assay in HepG2 cells - 0 hour (AID 1224889); details: RealTime-Glo luminescence; series mostly up to 76.8 µM
# Procedure, shortened: as §3
# Tags give direction and shape of the fitted curve.
smiles,measurement,setting,value
COC(=O)Nc1nc2ccccc2[nH]1,Potency,[1],active: 6.17 µM
same,Potency,[2],inactive
same,Potency,[3],"inconclusive: 4.36 µM [cytotoxic, full curve]"
COC(=O)C(Cl)C(=O)OC,Potency,[4],inactive
same,Potency,[5],inactive
BrCBr,Potency,[6],inactive
Oc1ccc2[nH]cc(CCCCN3CC=C(c4ccccc4)CC3)c2c1,Potency,[4],"inconclusive: 26.8 µM [activator, single point]"
same,Potency,[7],active: 8.49 µM
same,Potency,[8],inactive
same,Potency,[9],inactive
Cn1c(N)nc2c3cccnc3ccc21,Potency,[4],"inconclusive: 23.3 µM [activator, single point]"
same,Potency,[10],"inconclusive: 32.7 µM [cytotoxic, partial curve]"
CC(=O)C(Cl)C(=O)N(C)C (configuration not stated),Potency,[4],"inconclusive: 54.9 µM [activator, single point]"
same,Potency,[7],inactive
NC(=S)Nc1ccccc1,Potency,[6],active: 49.8 µM
same,Potency,[5],"inconclusive: 49.3 µM [cytotoxic, partial curve]"
O=C(NC(=O)c1c(F)cccc1F)Nc1cc(Cl)c(Oc2ncc(C(F)(F)F)cc2Cl)c(Cl)c1,Potency,[1],inactive
same,Potency,[2],inactive
same,Potency,[11],"inconclusive: 46.9 µM [cytotoxic, partial curve, poor fit]"
same,Potency,[3],"inconclusive: 21 µM [cytotoxic, partial curve]"
C[N+](C)=CCl,Potency,[6],inactive
CC1(C)Cc2cccc(O)c2O1,Potency,[4],"inconclusive: 5.09 µM [activator, single point]"
same,Potency,[7],inactive
O=C(O)c1ccccc1O,Potency,[4],"inconclusive: 30.1 µM [activator, single point]"
same,Potency,[8],"inconclusive: 30.1 µM [activator, single point]"
CCN(CC)N=O,Potency,[1],inactive
CC(=O)OC(c1ccccc1)C(Cl)(Cl)Cl (configuration not stated),Potency,[6],"inconclusive: 38.9 µM [activator, partial curve, poor fit]"
same,Potency,[8],"inconclusive: 19.5 µM [activator, partial curve]"
Cc1ccc(Cl)c(O)c1,Potency,[4],inactive
same,Potency,[8],inactive
CC(C)(CCl)C(=O)Cl,Potency,[1],inactive
[O-][Cl+]O,Potency,[4],"inconclusive: 24.5 µM [activator, single point]"
same,Potency,[12],"inconclusive: 68.6 µM [inhibitor, single point]"
C=CCc1ccc2c(c1)OCO2,Potency,[4],inactive
same,Potency,[8],"inconclusive: 61.9 µM [activator, partial curve, poor fit]"
Cc1ccc(N)cc1Cl,Potency,[6],inactive
CC1CC(CC2CCC(N)C(C)C2)CCC1N (configuration not stated),Potency,[4],"inconclusive: 62.7 µM [activator, single point]"
same,Potency,[10],"inconclusive: 39.2 µM [cytotoxic, partial curve, poor fit]"
same,Potency,[5],"inconclusive: 34.9 µM [cytotoxic, partial curve, poor fit]"
C=CCc1cc(OC)c2c(c1)OCO2,Potency,[4],"inconclusive: 57.5 µM [activator, single point]"
same,Potency,[8],"inconclusive: 64.5 µM [activator, single point]"
C#C[C@]1(O)C=C[C@H]2[C@@H]3CCC4=CC(=O)CC[C@@H]4[C@H]3CC[C@@]21CC,Potency,[4],inactive
same,Potency,[3],"inconclusive: 13.4 µM [cytotoxic, partial curve, poor fit]"
same,Potency,[13],inactive
same,Potency,[5],inactive
CCOC(=O)NC(C)(C)Cc1ccc(Cl)cc1,Potency,[4],"inconclusive: 23.9 µM [activator, single point]"
same,Potency,[14],"inconclusive: 11.9 µM [inhibitor, full curve, poor fit]"
c1ccc(N2CCNCC2)cc1,Potency,[6],"inconclusive: 0.756 µM [activator, partial curve, poor fit]"
C=CCOC(=O)c1ccccc1N,Potency,[4],"inconclusive: 62.1 µM [activator, single point]"
same,Potency,[7],"inconclusive: 43.9 µM [cytotoxic, partial curve, poor fit]"
same,Potency,[14],"inconclusive: 30.8 µM [inhibitor, full curve]"
O=C(O)COc1ccc(Cl)cc1Cl,Potency,[4],"inconclusive: 24.5 µM [activator, single point]"
same,Potency,[8],"inconclusive: 24.5 µM [activator, single point]"
same,Potency,[10],inactive
O=C(O)c1ccccn1,Potency,[1],inactive
COP(=S)(OC)Oc1cc(Cl)c(I)cc1Cl,Potency,[1],inactive
CCCN(CCCl)c1c([N+](=O)[O-])cc(C(F)(F)F)cc1[N+](=O)[O-],Potency,[6],inactive
CCOC(=O)C1(c2ccccc2)CCN(CCC(C#N)(c2ccccc2)c2ccccc2)CC1,Potency,[11],"inconclusive: 13.4 µM [cytotoxic, partial curve, poor fit]"
CN(C)[C@@H]1C(=O)C(C(N)=O)=C(O)[C@@]2(O)C(=O)C3=C(O)c4c(O)cccc4[C@@](C)(O)[C@H]3[C@H](O)[C@@H]12,Potency,[2],"inconclusive: 489 nM [activator, single point] and inconclusive: 19.3 µM [activator, partial curve]"
same,Potency,[3],inactive
same,Potency,[15],"inconclusive: 43.6 µM [cytotoxic, partial curve]"
same,Potency,[10],"inconclusive: 60.6 µM [cytotoxic, partial curve, poor fit]"
